Some of the results follow. Many values rest on one well or one pass, so single values are uncertain.
Experiments:
Assay in all cases: cell count relative to DMSO control; melanoma cells; higher = more viable cells
Conditions in all cases: library dose: standard library concentration; 72 h
G361 = test system: G361
IPC-298 = test system: IPC-298
IST-MEL1 = test system: IST-MEL1
LB2518-MEL = test system: LB2518-MEL
LOXIMVI = test system: LOXIMVI
MEL-HO = test system: MEL-HO
MZ2-MEL = test system: MZ2-MEL
MeWo = test system: MeWo
RPMI7951 = test system: RPMI7951
RVH-421 = test system: RVH-421
SkMel28 = test system: SkMel28
SkMel2 = test system: SkMel2
SkMel30 = test system: SkMel30
SkMel5 = test system: SkMel5
UACC257 = test system: UACC257
UACC62 = test system: UACC62
WM115 = test system: WM115
WM1716 = test system: WM1716
WM1745 = test system: WM1745
WM3526 = test system: WM3526
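Note: cells treated in 1,536-well plates, then fixed and DAPI-stained, with nuclei counted from automated high-throughput microscope images.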

Row | SMILES | cell count (G361) | cell count (IPC-298) | cell count (IST-MEL1) | cell count (LB2518-MEL) | cell count (LOXIMVI) | cell count (MEL-HO) | cell count (MZ2-MEL) | cell count (MeWo) | cell count (RPMI7951) | cell count (RVH-421) | cell count (SkMel28) | cell count (SkMel2) | cell count (SkMel30) | cell count (SkMel5) | cell count (UACC257) | cell count (UACC62) | cell count (WM115) | cell count (WM1716) | cell count (WM1745) | cell count (WM3526)
1 | CCCCCCCCc1ccc(CCC(N)(CO)CO)cc1 [fingolimod] + C#Cc1cccc(Nc2ncnc3cc(OCCOC)c(OCCOC)cc23)c1 [erlotinib] (first compound 10 µM, partner dose 4 µM) | 0.415% | 16.1% | 5.21% | 0.375% | 6.07% | 0.641% | 0.848% | 25.9% | 0.673% | 1.16% | 0.541% | 0.452% | 9.46% | 42.7% | 66.2% | 5.41% | 13.8% | 58.3% | 8.33% | 26.2%
2 | CC(C)(C)c1cnc(CSc2cnc(NC(=O)C3CCNCC3)s2)o1 + c1cc(-c2cnn3cc(-c4ccc(OCCN5CCCCC5)cc4)cnc23)ccn1 [Dorsomorphin] (first compound 0.05 µM, partner dose 2 µM) | 22.6% | 72.3% | 58.2% | 12.3% | 246% | 39.7% | 19.9% | 28.7% | 4.39% | 62.4% | 4.18% | 7.49% | 74.3% | 35.5% | 39.3% | 58.8% | 27.7% | 21.9% | 33.6% | 53%
3 | CN(NC(=O)CC(=O)NN(C)C(=S)c1ccccc1)C(=S)c1ccccc1 + CCc1ccc(CCOc2ccc(CC3SC(=O)NC3=O)cc2)nc1 [pioglitazone] (first compound 0.03 µM, partner dose 10 µM) | 43% | 78.5% | 33.8% | 35.4% | 77.3% | 73.6% | 104% | 24.9% | 88.8% | 34.4% | 46.7% | 82.9% | 105% | 83.9% | 98.5% | 64.6% | 22.3% | 74.8% | 31% | 81.8%
4 | CN(NC(=O)CC(=O)NN(C)C(=S)c1ccccc1)C(=S)c1ccccc1 + Cn1cc(/C=C2\C(=O)Nc3cccnc32)c2ccccc21 [GW441756] (first compound 0.03 µM, partner dose 2 µM) | 47.5% | 60.7% | 66.8% | 34.5% | 112% | 38.2% | 75% | 24.4% | 95.8% | 58.3% | 15.8% | 73.6% | 68.4% | 49.4% | 92.5% | 44.9% | 22.6% | 92.7% | 30.3% | 80.9%
5 | Cc1ccc(NC(=O)c2cccc(N(C)C)c2)cc1NC(=O)c1ccc(O)cc1 + COc1cc2c(Oc3ccc4[nH]c(C)cc4c3F)ncnc2cc1OCCCN1CCCC1 [cediranib] (first compound 10 µM, partner dose 2 µM) | 93.6% | 107% | 69.4% | 122% | 76.8% | 102% | 115% | 113% | 107% | 485% | 78.8% | 85.2% | 97.1% | 86.4% | 87.2% | 83.6% | 95% | 146% | 99.3% | 75%
6 | Cc1ccc(NC(=O)c2cccc(N(C)C)c2)cc1NC(=O)c1ccc(O)cc1 + COC(=O)c1sccc1S(=O)(=O)Nc1ccc(Nc2ccccc2)cc1OC [GSK0660] (first compound 10 µM, partner dose 5 µM) | 93.3% | 91.2% | 89.8% | 87% | 117% | 82.8% | 92.2% | 94.5% | 76.6% | 109% | 75.8% | 80.4% | 79.7% | 99.8% | 84.1% | 110% | 101% | 99.1% | 82.7% | 85.8%
7 | NC(=O)c1ccc(N(C(N)=O)c2c(F)cccc2F)nc1-c1ccc(F)cc1F + C=C(c1ccc(C(=O)O)cc1)c1cc2c(cc1C)C(C)(C)CCC2(C)C [Bexarotene] (first compound 2 µM, partner dose 10 µM) | 96.1% | 80.5% | 90% | 116% | 89% | 100% | 91.8% | 97.9% | 65.8% | 90.3% | 103% | 95.5% | 120% | 105% | 83.9% | 90.1% | 104% | 86.5% | 95.2% | 90%
8 | CCc1ccc(CCOc2ccc(CC3SC(=O)NC3=O)cc2)nc1 (stereo not given) [pioglitazone] + Cc1cc([N+](=O)[O-])ccc1NS(=O)(=O)c1cc(Cl)ccc1Cl [FH535] (first compound 10 µM, partner dose 5 µM) | 37.8% | 46.5% | 57.1% | 84% | 57.5% | 51.1% | 75.6% | 83.5% | 102% | 59.6% | 62.9% | 96.7% | 87.8% | 76.3% | 70.3% | 106% | 83.9% | 88.8% | 72.5% | 74.5%
9 | Cc1ccc(NC(=O)c2cccc(N(C)C)c2)cc1NC(=O)c1ccc(O)cc1 + Cn1cncc1[C@@](N)(c1ccc(Cl)cc1)c1ccc2c(c1)c(-c1cccc(Cl)c1)cc(=O)n2C [tipifarnib] (first compound 10 µM, partner dose 0.05 µM) | 68.6% | 86.3% | 83.9% | 70.8% | 84.6% | 92.1% | 110% | 92.3% | 66% | 7.09% | 77.9% | 72.6% | 104% | 67.1% | 87.4% | 78.3% | 77.1% | 78.4% | 91.7% | 71.7%
10 | COc1cc2c(Oc3ccc4[nH]c(C)cc4c3F)ncnc2cc1OCCCN1CCCC1 [cediranib] + COC(=O)c1sccc1S(=O)(=O)Nc1ccc(Nc2ccccc2)cc1OC [GSK0660] (first compound 2 µM, partner dose 5 µM) | 107% | 86.3% | 117% | 119% | 95% | 95.4% | 80.7% | 77.9% | 117% | 79% | 82.8% | 94.9% | 83.7% | 74.1% | 81.2% | 82.7% | 95.1% | 83.3% | 83.4% | 72.8%
11 | Cc1ccc(NC(=O)c2cccc(N(C)C)c2)cc1NC(=O)c1ccc(O)cc1 + O=C(Nc1ccccc1)c1cc([N+](=O)[O-])ccc1Cl [GW9662] (first compound 10 µM, partner dose 10 µM) | 90.2% | 101% | 99.2% | 62.1% | 99.5% | 86.1% | 98.8% | 76.8% | 57.8% | 93.5% | 71.1% | 89.2% | 86% | 76.8% | 79.6% | 84.4% | 67.6% | 77.1% | 56.8% | 91.3%
12 | CC(C)(C)c1cnc(CSc2cnc(NC(=O)C3CCNCC3)s2)o1 + Oc1cc(-c2nc(-c3ccccc3)[nH]c2-c2ccncc2)ccc1Cl [L779450] (first compound 0.05 µM, partner dose 1 µM) | 68.7% | 92.2% | 104% | 74.3% | 89% | 100% | 87.5% | 88.1% | 52.1% | 93.3% | 47.5% | 32.1% | 71.8% | 58.8% | 103% | 50.3% | 47.5% | 42.9% | 55.1% | 49.1%
13 | NC(=O)c1ccc(N(C(N)=O)c2c(F)cccc2F)nc1-c1ccc(F)cc1F + C=CCn1c(=O)c2cnc(Nc3ccc(N4CCN(C)CC4)cc3)nc2n1-c1cccc(C(C)(C)O)n1 [MK1775] (first compound 2 µM, partner dose 0.1 µM) | 80.4% | 95.1% | 79.6% | 73.7% | 81% | 102% | 118% | 76.5% | 62.3% | 89.5% | 59% | 85% | 72.5% | 52.6% | 77.4% | 68.3% | 64.4% | 89.4% | 59.9% | 65%
14 | CN(NC(=O)CC(=O)NN(C)C(=S)c1ccccc1)C(=S)c1ccccc1 + COc1cc(N2CCC(N3CCN(C)CC3)CC2)ccc1Nc1ncc(Cl)c(Nc2ccccc2S(=O)(=O)C(C)C)n1 [NVP-TAE684] (first compound 0.03 µM, partner dose 0.4 µM) | 33.2% | 66.9% | 39.1% | 24.1% | 86.5% | 74% | 87.8% | 8.87% | 67.1% | 59.6% | 17.8% | 44.8% | 84.1% | 28% | 86.3% | 41.6% | 14.3% | 69.4% | 10.5% | 79.2%
15 | NC(=O)c1ccc(N(C(N)=O)c2c(F)cccc2F)nc1-c1ccc(F)cc1F + COc1ccc(Cl)c(Nc2nc3ccccc3nc2NS(=O)(=O)c2cccc(NC(=O)C(C)(C)N)c2)c1 [XL147] (first compound 2 µM, partner dose 4 µM) | 83.9% | 89.2% | 70.3% | 85.4% | 107% | 77.1% | 99.2% | 81.8% | 128% | 77.1% | 94.3% | 95.4% | 78% | 87.9% | 70.5% | 92.9% | 101% | 109% | 82.7% | 103%
16 | CCCCCCCCc1ccc(CCC(N)(CO)CO)cc1 [fingolimod] + COCC[n+]1c2c(n(Cc3cnccn3)c1C)C(=O)c1ccccc1C2=O [YM155] (first compound 10 µM, partner dose 0.002 µM) | 1.03% | 19.6% | 13.7% | 0.162% | 14.3% | 2.13% | 1.29% | 28.4% | 1.18% | 3.73% | 0.223% | 0.089% | 13.5% | 38.1% | 37% | 20.6% | 13.3% | 50.4% | 4.3% | 34%
17 | NC(=O)c1ccc(N(C(N)=O)c2c(F)cccc2F)nc1-c1ccc(F)cc1F + CN(NC(=O)CC(=O)NN(C)C(=S)c1ccccc1)C(=S)c1ccccc1 [STA4783] (first compound 2 µM, partner dose 0.03 µM) | 38.7% | 81.1% | 24.7% | 16.4% | 53.2% | 73% | 109% | 19.7% | 53.8% | 66.8% | 34% | 62.7% | 72.3% | 53.5% | 93.6% | 47.3% | 24.8% | 72.6% | 24.8% | 82.6%
